Results on 46 molecules are retold here after PubChem BioAssay AID1508624 (National Center for Advancing Translational Sciences (NCATS), 2021).

Structures are written as SMILES. About 120 (0.25%) of roughly 48,000 compounds were called active. Another 4% or so got no clear call; they are omitted. The call rests on the fitted dose curve; in most records, active means well fitted activation curve with a large enough effect; inconclusive means small, poorly fitted or top-dose-only effect, or another doubt; inactive means no such curve, though single readings can be large or run the other way. This is one part of the list.

This assay is described as follows: Primary qHTS for Identification of Small Molecule Activators of Huntingtin-Antisense Promoter Activity. Further: nearly all actives have a fitted effect of over 55% in size. The note with it: HEK293 HTT-AS promoter firefly luciferase reporter, 24 h; series mostly up to 57.5 µM; activity change, positive = activation: at the top concentration. From the text:
Assay Provider: Russell L. Margolis M.D.
Department Neurology, Johns Hopkins University School of Medicine, Baltimore, MD
Huntington's Disease (HD) is a neurodegenerative disorder caused by a CAG repeat expansion in exon 1 of huntingtin (HTT). While there are currently no disease-modifying treatments for HD, recent efforts have focused on development of nucleotide-based therapeutics to lower HTT expression. As an alternative to siRNA or oligonucleotide methods, we hypothesized that suppression of HTT expression might be accomplished by small molecules that either (1) directly decrease HTT expression by suppressing HTT promoter activity or (2) indirectly decrease HTT expression by increasing the promoter activity of HTT-AS, the gene antisense to HTT that appears to inhibit expression of HTT.
We developed and employed a high throughput screen for modifiers of HTT and HTT-AS promoter activity using luminescent reporter HEK293 cells; of the 52,041 compounds tested, we identified 898 replicable hits. We used a rigorous stepwise approach to assess compound toxicity and the capacity of the compounds to specifically lower huntingtin protein in 5 different cell lines, including HEK293 cells, HD lymphoblastoid cells, mouse primary neurons, HD iPSCs differentiated into cortical-like neurons, and HD hESCs. We found no compounds which were able to lower huntingtin without lowering cell viability in all assays, though the potential efficacy of a few compounds at non-toxic doses could not be excluded.
SEQUENCE No. (1, 2, 3, etc.); […] (e.g., Cells, Incubation, Reagent, etc.); VALUE and DESCRIPTION.
1; Reagent; 4 uL; 2,500 Hek293 luciferase reporter cells per wells
3; Compound; 23 nL; Control inhibitor / compound library
5; Reagent; 2.5 uL; Firefly Luc reagent; Dual-Glo Luciferase Reporter Assay System (Promega)
6; Time; 10 min; room temperature incubation
7; Detection; Luminescence; FLuc
NOTES (numbers refer to sequence above)
1; High-throughput screening, measuring luminescence from a Hek293 luciferase reporter, was performed in 1,536 well white-walled tissue-culture treated plates. 2,500 cells were plated in 4 µL of Opti-MEM per well using a Multidrop Combi Reagent Dispenser (ThermoFisher).
2; Assay plates were cultured for 24 hours.
3; Control inhibitor (PTC124; final concentration of 50 uM) and compound library (at final concentrations of 460 nM - 57.5 uM) were added to the assay plate using the Kalypsis Pintool Robotic System equipped with 1536 pinheads.
4; Cells were then incubated for 24 hours at 37 degrees C prior to luminescence measurements.
5; In all cases, luminescence was measured using the Dual-Glo Luciferase Reporter Assay System (Promega) following the manufacturer's instructions.
6; Room temperature incubation.
7; Luminescence signal was obtained using the PerkinElmer ViewLux plate reader. Results were normalized to vehicle control (0% activity) and zero RLU (-100% activity).
As for `O=C(CCCn1c(=O)c2sccc2n(Cc2cccc(Cl)c2)c1=O)NCc1ccc2c(c1)OCO2`, the “activity change, positive = activation” value was inactive: -19.3%.

As to `Cc1cc(C)cc(NC(=O)CSCc2cc(=O)c3ccc(C)c(C)c3[nH]2)c1`, the “activity change, positive = activation” value was inactive: -8.83%.

Consider `CNS(=O)(=O)c1cn(CC(=O)N2CCN(c3cc(C)ccc3C)CC2)cc1S(=O)(=O)NC`, for which the “activity change, positive = activation” value was inactive: -8.65%.

Consider `O=c1cc(-c2ccccc2)n2c(SCc3cccc([N+](=O)[O-])c3)nnc2[nH]1`, for which the “activity change, positive = activation” value was inactive: -10.8%. As for `Fc1ccc(Cn2c(-c3cccc(Br)c3)nc3ccccc32)cc1`, the “activity change, positive = activation” value is inactive: -28.2%.

Turning to `CCOc1ccc(CCNC(=O)Cn2nc(CC)n3c(cc4sccc43)c2=O)cc1`, the “activity change, positive = activation” value is inactive: -15.2%. Next, `Cc1nn2c(C)c(C(=O)NCC(C)c3ccccc3)cnc2c1-c1ccccc1` (stereo unspecified): inactive: -16.4%; `O=C(NCCc1nc2ccccc2n1CCCOc1ccc(Cl)cc1)C1CCCCC1`: inactive: -46.9%.

As to `O=C(Nc1c2c(nn1-c1ccc(Cl)cc1)CS(=O)(=O)C2)c1ccccc1F`, the “activity change, positive = activation” value was inactive: -15%. For the molecule `COc1ccc(C2NC(=O)N(C)C3=C2C(=O)N(c2ccc(F)cc2)C3)cc1` (stereo unspecified), the “activity change, positive = activation” value is inactive: -17.8%. Regarding `Cc1cccc(NC(=O)CSc2nccn2-c2cccc(Cl)c2)c1C`, the “activity change, positive = activation” value was inactive: -17.3%. Regarding `CCC(C(=O)NCc1ccccc1Cl)n1nc(C)c2sc3ccccc3c2c1=O` (stereo unspecified), the “activity change, positive = activation” value is inactive: -4.43%. For `Cc1ccc(NC(=O)c2sc(-n3nc(C)c(Cc4ccc5c(c4)OCO5)c3C)nc2C)cc1C`, the “activity change, positive = activation” value is inactive: -18.5%. Next, `CSc1ccc(/C=C2/C(C)=C(CC(=O)O)c3cc(F)ccc32)cc1`: inactive: -0.644%; `CCOc1cc(C2c3c(-c4ccccc4O)n[nH]c3C(=O)N2Cc2cccnc2)ccc1O` (stereo unspecified): inactive: 5.51%. Turning to `CCOC(=O)c1ccc(C#Cc2ccc3c(c2)C(C)(C)CCS3)nc1`, the “activity change, positive = activation” value is inactive: -4.31%.

Consider `Cc1ccc(C)c(CN2C(=O)c3ccccc3S(=O)(=O)c3ccc(C(=O)N4CCN(c5ccccc5F)CC4)cc32)c1`, for which the “activity change, positive = activation” value was inactive: -10.5%. As for `COc1ccc(CNC(=O)CCc2nnc3n(CC(C)C)c(=O)c4ccccc4n23)cc1`, the “activity change, positive = activation” value was inactive: -6.89%. `COc1ccc(C)cc1NS(=O)(=O)c1ccc2[nH]c(=O)c(=O)[nH]c2c1`: the “activity change, positive = activation” value was inactive: -9.14%.

As to `CCn1ccc2cc(S(=O)(=O)N3CCCN(C(=O)NCCOC)CC3)ccc21`, the “activity change, positive = activation” value is inactive: 2.93%. For the molecule `CCS(=O)(=O)N1CCc2cc(C(=O)Nc3cc(C(F)(F)F)ccc3Cl)ccc21`, the “activity change, positive = activation” value was inactive: -21.6%. Regarding `CCOC(=O)C1=C(CN2CCN(c3cc(C)ccc3C)CC2)NC(=O)NC1c1ccc(Cl)cc1` (stereo unspecified), the “activity change, positive = activation” value is inactive: -69.8%. With `COc1cccc(NC(=O)Cn2c(=O)n(CCCCC(=O)NCCc3ccccc3)c(=O)c3ccccc32)c1`, the “activity change, positive = activation” value was inactive: -23.4%. As for `CCOc1cc(C(=O)N2CCC(c3ccncc3)CC2)cc(OCC)c1OCC`, the “activity change, positive = activation” value was inactive: -17.4%. Consider `COc1ccc(Cl)cc1NC(=O)CSc1nc(-c2ccco2)cc(C(F)(F)F)n1`, for which the “activity change, positive = activation” value is inactive: -29.6%. Turning to `NC(=O)C1CCN(C(=O)Cn2c(-c3cccs3)cc3ccccc32)CC1`, the “activity change, positive = activation” value was inactive: -14%. On to `CCOc1ccc(NC(=O)CN2CCN(CC(=O)Nc3ccccc3OCC)CC2)cc1`, for which the “activity change, positive = activation” value was inactive: -16.2%.

In the case of `CCCCN(c1ccccc1)S(=O)(=O)c1ccc2c(c1)CC(C)N2C(=O)C1CC1` (stereo unspecified), the “activity change, positive = activation” value was inactive: -38.1%. In the case of `CCc1ccccc1Nc1nc2ccccc2n2cnnc12`, the “activity change, positive = activation” value was inactive: -24.9%. For the molecule `COc1ccc(CCNC(=O)CCn2c(=O)c3cccn3c3cccnc32)cc1OC`, the “activity change, positive = activation” value was inactive: -13.9%. Turning to `COc1ccccc1-n1nc(-c2ccccc2)c2cnc3cc(C(F)(F)F)ccc3c21`, the “activity change, positive = activation” value is inactive: -19.3%. Next, `CCOC(=O)c1ccc(NC(=O)COC(=O)c2cn(CC)c3nc(C)ccc3c2=O)cc1`: inactive: -9.73%; `CC1CN(S(=O)(=O)c2ccc3c(c2)NC(=O)CC(=O)N3)c2ccccc2O1` (stereo unspecified): inactive: -3.69%; `COc1ccc(-c2oc3ncn4nc(-c5ccccc5C)nc4c3c2-c2ccc(OC)cc2)cc1`: inactive: -6.06% [at 11.5 µM, percent change from vehicle, -100% = no light].

Regarding `Cc1cccc(C)c1OC(=O)CSc1nnc(-c2cccs2)o1`, the “activity change, positive = activation” value was inactive: -2.05%.

As to `Cc1ccc(-n2nc(C(=O)Nc3ccc(C)c(F)c3)c3c4ccccc4n(C)c3c2=O)cc1`, the “activity change, positive = activation” value is inactive: -10.5%. `NC(=O)Cn1c(=O)n(CCCCCC(=O)NCc2ccccc2)c(=O)c2sccc21`: the “activity change, positive = activation” value was inactive: 5.1%. For the molecule `COc1ccc(-n2c(=O)c3ccccc3n(Cc3ccccc3C)c2=O)c(OC)c1`, the “activity change, positive = activation” value is inactive: -36.8%. As to `CC(=O)Nc1nonc1-c1nnc(SCC(=O)Nc2ccc(C)c(Cl)c2)n1-c1ccccc1`, the “activity change, positive = activation” value is inactive: -23.5%.

For `CCOc1ccc(C(=O)c2cnc3ccc(Cl)cc3c2S(=O)(=O)c2ccc(C)cc2)cc1`, the “activity change, positive = activation” value was inactive: 2.02%. Next, `CCc1ccccc1Nc1nc2cc(Cl)c(Cl)cc2nc1-n1nc(C)cc1C`: inactive: -3.19%; `Cc1ccc(-n2nc(CO)c(C(=O)NCCCc3ccccc3)n2)cc1`: inactive: -9.25%. In the case of `COc1ccccc1CNC(=O)c1cnc2sc(N3CCCCCC3)nn2c1=O`, the “activity change, positive = activation” value is inactive: -16.6%. With `O=c1c2ccccc2n(Cc2ccccc2F)c(=O)n1-c1cccc(F)c1`, the “activity change, positive = activation” value was inactive: -31.5%. As for `Cc1cccc(NC(=O)c2ccc(-c3nc(CSc4ccccc4)c(C)o3)cc2)c1C`, the “activity change, positive = activation” value is inactive: 0%. Consider `Cc1nc2sc(C(N)=O)c(N)c2c(-c2ccc(Br)cc2)c1C(=O)Nc1ccc(Cl)cc1`, for which the “activity change, positive = activation” value is inactive: -48.9%.
